Laboratory results as given in publication PMC9911399, “Two distinct binding modes provide the RNA-binding protein RbFox with extraordinary sequence specificity”.
Changes are numbered by the printed parent chain; changes in the protein carry UniProt numbers. The list shows a part of the results.

T1: RBFOX1 RRM (Homo sapiens, UniProt Q9NWB1 109-208)
T1 sequence: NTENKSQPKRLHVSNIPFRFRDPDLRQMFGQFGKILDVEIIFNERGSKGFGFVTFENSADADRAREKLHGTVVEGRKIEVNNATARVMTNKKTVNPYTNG

B1: CCGCAUG (DNA:RNA)
RNA: GGGAGACCGGAAUUCAGAUUGUCCCCGCAUGUUAAAUCCCGUCGUAGCCACCA
DNA 1: CAATCTGAATTCCGGTCTCCC
DNA 2: TGGTGGCTACGACGGGATT
B2: UCGGAAC (DNA:RNA)
RNA: B1 RNA with C25U, C28G, U30A, G31C
DNA 1: CAATCTGAATTCCGGTCTCCC
DNA 2: TGGTGGCTACGACGGGATT
B3: AAUUGAC (DNA:RNA)
RNA: GGGAGACCGGAAUUCAGAUUGUCCAAUUGACUUAAAUCCCGUCGUAGCCACCA
DNA 1: CAATCTGAATTCCGGTCTCCC
DNA 2: TGGTGGCTACGACGGGATT
B4: GUUCCAG (DNA:RNA)
RNA: B3 RNA with A25G, A26U, U28C, G29C, C31G
DNA 1: CAATCTGAATTCCGGTCTCCC
DNA 2: TGGTGGCTACGACGGGATT
B5: CGGCAGU (DNA:RNA)
RNA: B1 RNA with C26G, U30G, G31U
DNA 1: CAATCTGAATTCCGGTCTCCC
DNA 2: TGGTGGCTACGACGGGATT
B6: AGAAGUU (DNA:RNA)
RNA: B3 RNA with A26G, U27A, U28A, A30U, C31U
DNA 1: CAATCTGAATTCCGGTCTCCC
DNA 2: TGGTGGCTACGACGGGATT
B7: GAUCGCU (DNA:RNA)
RNA: B3 RNA with A25G, U28C, A30C, C31U
DNA 1: CAATCTGAATTCCGGTCTCCC
DNA 2: TGGTGGCTACGACGGGATT
B8: AAAACCA (DNA:RNA)
RNA: B3 RNA with U27A, U28A, G29C, A30C, C31A
DNA 1: CAATCTGAATTCCGGTCTCCC
DNA 2: TGGTGGCTACGACGGGATT
B9: AGGGCCG (DNA:RNA)
RNA: B1 RNA with C25A, C26G, C28G, A29C, U30C
DNA 1: CAATCTGAATTCCGGTCTCCC
DNA 2: TGGTGGCTACGACGGGATT
B10: ACUAGGA (DNA:RNA)
RNA: B3 RNA with A26C, U28A, A30G, C31A
DNA 1: CAATCTGAATTCCGGTCTCCC
DNA 2: TGGTGGCTACGACGGGATT
B11: CCGCUGA (DNA:RNA)
RNA: B1 RNA with A29U, U30G, G31A
DNA 1: CAATCTGAATTCCGGTCTCCC
DNA 2: TGGTGGCTACGACGGGATT
B12: AAUAUGU (DNA:RNA)
RNA: B3 RNA with U28A, G29U, A30G, C31U
DNA 1: CAATCTGAATTCCGGTCTCCC
DNA 2: TGGTGGCTACGACGGGATT
B13: UGUUAGU (DNA:RNA)
RNA: B3 RNA with A25U, A26G, G29A, A30G, C31U
DNA 1: CAATCTGAATTCCGGTCTCCC
DNA 2: TGGTGGCTACGACGGGATT
B14: UCCACAU (DNA:RNA)
RNA: B3 RNA with A25U, A26C, U27C, U28A, G29C, C31U
DNA 1: CAATCTGAATTCCGGTCTCCC
DNA 2: TGGTGGCTACGACGGGATT
B15: GAUAUCA (DNA:RNA)
RNA: B3 RNA with A25G, U28A, G29U, A30C, C31A
DNA 1: CAATCTGAATTCCGGTCTCCC
DNA 2: TGGTGGCTACGACGGGATT
B16: AAGUGGA (DNA:RNA)
RNA: B3 RNA with U27G, A30G, C31A
DNA 1: CAATCTGAATTCCGGTCTCCC
DNA 2: TGGTGGCTACGACGGGATT
B17: AGUAAUC (DNA:RNA)
RNA: B3 RNA with A26G, U28A, G29A, A30U
DNA 1: CAATCTGAATTCCGGTCTCCC
DNA 2: TGGTGGCTACGACGGGATT
B18: CCUUCCC (DNA:RNA)
RNA: B3 RNA with A25C, A26C, G29C, A30C
DNA 1: CAATCTGAATTCCGGTCTCCC
DNA 2: TGGTGGCTACGACGGGATT
B19: CGAGUGC (DNA:RNA)
RNA: B3 RNA with A25C, A26G, U27A, U28G, G29U, A30G
DNA 1: CAATCTGAATTCCGGTCTCCC
DNA 2: TGGTGGCTACGACGGGATT
B20: CGUGUUG (DNA:RNA)
RNA: B1 RNA with C26G, G27U, C28G, A29U
DNA 1: CAATCTGAATTCCGGTCTCCC
DNA 2: TGGTGGCTACGACGGGATT
B21: CGAAACU (DNA:RNA)
RNA: B1 RNA with C26G, G27A, C28A, U30C, G31U
DNA 1: CAATCTGAATTCCGGTCTCCC
DNA 2: TGGTGGCTACGACGGGATT
B22: AUAUGGG (DNA:RNA)
RNA: B3 RNA with A26U, U27A, A30G, C31G
DNA 1: CAATCTGAATTCCGGTCTCCC
DNA 2: TGGTGGCTACGACGGGATT
B23: AACUUCC (DNA:RNA)
RNA: B3 RNA with U27C, G29U, A30C
DNA 1: CAATCTGAATTCCGGTCTCCC
DNA 2: TGGTGGCTACGACGGGATT
B24: GUACCAU (DNA:RNA)
RNA: B3 RNA with A25G, A26U, U27A, U28C, G29C, C31U
DNA 1: CAATCTGAATTCCGGTCTCCC
DNA 2: TGGTGGCTACGACGGGATT
B25: UUGCUCU (DNA:RNA)
RNA: B1 RNA with C25U, C26U, A29U, U30C, G31U
DNA 1: CAATCTGAATTCCGGTCTCCC
DNA 2: TGGTGGCTACGACGGGATT
B26: AAUAACU (DNA:RNA)
RNA: B3 RNA with U28A, G29A, A30C, C31U
DNA 1: CAATCTGAATTCCGGTCTCCC
DNA 2: TGGTGGCTACGACGGGATT
B27: GGCGUAG (DNA:RNA)
RNA: B3 RNA with A25G, A26G, U27C, U28G, G29U, C31G
DNA 1: CAATCTGAATTCCGGTCTCCC
DNA 2: TGGTGGCTACGACGGGATT
B28: CGCACGC (DNA:RNA)
RNA: B3 RNA with A25C, A26G, U27C, U28A, G29C, A30G
DNA 1: CAATCTGAATTCCGGTCTCCC
DNA 2: TGGTGGCTACGACGGGATT
B29: CGUGCAC (DNA:RNA)
RNA: B3 RNA with A25C, A26G, U28G, G29C
DNA 1: CAATCTGAATTCCGGTCTCCC
DNA 2: TGGTGGCTACGACGGGATT
B30: UGAAAUC (DNA:RNA)
RNA: B1 RNA with C25U, C26G, G27A, C28A, G31C
DNA 1: CAATCTGAATTCCGGTCTCCC
DNA 2: TGGTGGCTACGACGGGATT
B31: AAUCUGC (DNA:RNA)
RNA: B3 RNA with U28C, G29U, A30G
DNA 1: CAATCTGAATTCCGGTCTCCC
DNA 2: TGGTGGCTACGACGGGATT

molecular target: T1, RBFOX1 RRM; assay: EMSA; HiTS-Eq, 1 nM pool, 10 min; buffer printed only for the single-RNA assays: 10 mM Tris pH 7.5, 150 mM NaCl, 3.4 mM EDTA, 0.001% NP-40, 30 C; conditions: tags: His6 N-terminal (pET28a); label: 5' 32P
How it was run: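 Purified wild-type or mutant RbFox RRM at increasing concentrations was equilibrated with 1 nM of 5′-radiolabelled RNA carrying 7 randomized nucleotides for 10 min in 50 µL. Unbound RNA was separated by 8% native PAGE and sequenced. Relative association constants came from read-count changes of each RNA species compared with the control reaction, normalised to the cognate motif.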

How did the binding signal turn out when B1 was run?
The binding signal was 0.806 KA relative to UGCAUGU.

For B2, which binding signal is on record?
Its binding signal is 0.00637 KA relative to UGCAUGU.

B3 was tested. Which binding signal did it give?
The binding signal was 0.00941 KA relative to UGCAUGU.

How did the binding signal turn out when B4 was run?
Its binding signal is 0.0134 KA relative to UGCAUGU.

For B5, which binding signal is on record?
The binding signal was 0.0107 KA relative to UGCAUGU.

Which binding signal does the source give for B6 here?
Its binding signal is 0.00679 KA relative to UGCAUGU.

With B7 as the binder, how does the binding signal read?
Its binding signal is 0.0137 KA relative to UGCAUGU.

For B8, which binding signal is on record?
The binding signal was 0.00178 KA relative to UGCAUGU.

For B9, which binding signal is on record?
Its binding signal is 0.0216 KA relative to UGCAUGU.

How did the binding signal turn out when B10 was run?
Its binding signal is 0.00458 KA relative to UGCAUGU.

How did the binding signal turn out when B11 was run?
The binding signal was 0.0126 KA relative to UGCAUGU.

B12 was tested. Which binding signal did it give?
The binding signal was 0.00943 KA relative to UGCAUGU.

How did the binding signal turn out when B13 was run?
Its binding signal is 0.0185 KA relative to UGCAUGU.

Which binding signal does the source give for B14 here?
The binding signal was 0.00266 KA relative to UGCAUGU.

How did the binding signal turn out when B15 was run?
The binding signal was 0.00907 KA relative to UGCAUGU.

How did the binding signal turn out when B16 was run?
Its binding signal is 0.00304 KA relative to UGCAUGU.

Which binding signal does the source give for B17 here?
The binding signal was 0.00677 KA relative to UGCAUGU.

Which binding signal does the source give for B18 here?
The binding signal was 0.00395 KA relative to UGCAUGU.

With B19 as the binder, how does the binding signal read?
The binding signal was 0.0179 KA relative to UGCAUGU.

B20 was tested. Which binding signal did it give?
Its binding signal is 0.0111 KA relative to UGCAUGU.

For B21, which binding signal is on record?
The binding signal was 0.00281 KA relative to UGCAUGU.

With B22 as the binder, how does the binding signal read?
Its binding signal is 0.00401 KA relative to UGCAUGU.

Which binding signal does the source give for B23 here?
Its binding signal is 0.00414 KA relative to UGCAUGU.

Which binding signal does the source give for B24 here?
Its binding signal is 0.00178 KA relative to UGCAUGU.

With B25 as the binder, how does the binding signal read?
The binding signal was 0.0225 KA relative to UGCAUGU.

With B26 as the binder, how does the binding signal read?
The binding signal was 0.000238 KA relative to UGCAUGU.

Which binding signal does the source give for B27 here?
Its binding signal is 0.0147 KA relative to UGCAUGU.

How did the binding signal turn out when B28 was run?
Its binding signal is 0.0306 KA relative to UGCAUGU.

With B29 as the binder, how does the binding signal read?
The binding signal was 0.022 KA relative to UGCAUGU.

B30 was tested. Which binding signal did it give?
The binding signal was 0.00702 KA relative to UGCAUGU.

Which binding signal does the source give for B31 here?
Its binding signal is 0.0105 KA relative to UGCAUGU.
